{
  "sequences": {"note": "Protein sequences, listed by entry. Tags and fused reporters are not part of them. Lines headed by an entry give the natural chain unless they say otherwise; changes in a name come on top. Chains listed by the source or under a name are the forms on record and can include a tag or linker.", "UniProt Q9EP80": "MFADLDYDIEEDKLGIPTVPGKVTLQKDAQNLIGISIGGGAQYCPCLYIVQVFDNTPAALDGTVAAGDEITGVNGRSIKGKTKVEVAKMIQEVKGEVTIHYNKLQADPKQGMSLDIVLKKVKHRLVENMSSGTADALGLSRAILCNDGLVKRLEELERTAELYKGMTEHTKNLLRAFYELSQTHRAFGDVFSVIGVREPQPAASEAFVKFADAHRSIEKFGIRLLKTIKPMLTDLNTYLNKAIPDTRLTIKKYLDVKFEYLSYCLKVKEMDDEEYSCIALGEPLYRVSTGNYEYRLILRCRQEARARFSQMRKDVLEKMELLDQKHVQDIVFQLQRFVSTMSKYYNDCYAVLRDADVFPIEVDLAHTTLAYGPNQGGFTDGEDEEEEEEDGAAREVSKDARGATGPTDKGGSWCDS", "full-length myc-PICK1 with the K27D28AA substitutions (myc-KDAA) (Q9EP80, form named)": "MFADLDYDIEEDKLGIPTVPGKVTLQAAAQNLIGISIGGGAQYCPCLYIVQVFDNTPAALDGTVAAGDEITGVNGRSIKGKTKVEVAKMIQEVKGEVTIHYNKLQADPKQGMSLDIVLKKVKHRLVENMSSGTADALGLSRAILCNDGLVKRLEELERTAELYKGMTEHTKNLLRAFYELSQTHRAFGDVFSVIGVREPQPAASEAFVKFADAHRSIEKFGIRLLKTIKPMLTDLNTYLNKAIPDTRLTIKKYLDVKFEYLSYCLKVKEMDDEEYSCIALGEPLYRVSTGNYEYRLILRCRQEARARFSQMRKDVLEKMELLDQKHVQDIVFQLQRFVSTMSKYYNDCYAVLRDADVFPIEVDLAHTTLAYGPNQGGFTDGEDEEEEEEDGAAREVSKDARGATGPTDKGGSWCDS", "UniProt Q62083": "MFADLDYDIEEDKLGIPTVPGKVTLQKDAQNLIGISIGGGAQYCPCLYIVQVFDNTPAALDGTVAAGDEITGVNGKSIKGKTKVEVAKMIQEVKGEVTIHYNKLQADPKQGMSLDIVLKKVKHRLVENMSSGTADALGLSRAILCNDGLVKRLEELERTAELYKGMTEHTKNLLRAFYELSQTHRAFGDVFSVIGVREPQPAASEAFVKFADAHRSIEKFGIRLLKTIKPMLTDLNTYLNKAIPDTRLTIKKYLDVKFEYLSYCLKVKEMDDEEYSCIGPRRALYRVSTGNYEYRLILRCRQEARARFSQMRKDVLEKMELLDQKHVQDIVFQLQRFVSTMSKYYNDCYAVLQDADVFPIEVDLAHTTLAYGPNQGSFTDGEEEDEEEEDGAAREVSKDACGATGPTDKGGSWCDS"},
  "source": "paper PMC4383008",
  "key": {"[1]": {"target": "T1, GST-RAB39B (mouse) (UniProt Q8BHC1)", "T1 sequence": "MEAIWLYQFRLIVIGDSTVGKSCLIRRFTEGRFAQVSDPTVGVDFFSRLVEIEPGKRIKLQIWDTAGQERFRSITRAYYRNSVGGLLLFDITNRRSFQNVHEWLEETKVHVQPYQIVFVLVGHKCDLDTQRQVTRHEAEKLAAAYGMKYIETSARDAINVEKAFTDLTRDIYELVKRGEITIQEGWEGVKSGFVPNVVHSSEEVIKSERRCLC", "assay": "pull-down; 40 μg GST-RAB39B on glutathione-Sepharose 4B beads in presence of GTPγS, 10 μl of the in vitro translational reaction of PICK1, 3 h at 4 °C; only the target purified"}, "[2]": {"target": "T2, GST-RAB39B Q68L (mouse) (UniProt Q8BHC1)", "T2 sequence": "T1 sequence with Q68L", "assay": "pull-down; 40 μg GST-RAB39B S22N or GST-RAB39B Q68L on glutathione-Sepharose 4B beads, 8 mg mouse brain lysate (HKT or RIPA buffer), 3 h at 4 °C; only the target purified"}, "[3]": {"target": "T3, GST-RAB39A (UniProt Q8BHD0)", "T3 sequence": "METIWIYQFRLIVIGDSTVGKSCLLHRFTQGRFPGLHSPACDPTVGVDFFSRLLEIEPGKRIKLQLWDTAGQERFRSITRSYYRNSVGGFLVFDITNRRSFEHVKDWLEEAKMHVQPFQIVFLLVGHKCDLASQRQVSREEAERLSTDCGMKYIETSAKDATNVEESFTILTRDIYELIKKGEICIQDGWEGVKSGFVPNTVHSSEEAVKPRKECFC", "assay": "pull-down; GST-RAB39A as bait; input and nucleotide not told in the text (Supplementary Fig. 1d); only the target purified"}, "[4]": {"target": "T1, GST-RAB39B (mouse)", "assay": "pull-down; 40 μg GST-RAB39B on glutathione-Sepharose 4B beads in presence of GTPγS, 8 mg mouse brain lysate (HKT or RIPA buffer), 3 h at 4 °C; only the target purified"}, "[5]": {"target": "GST-PICK1 (UniProt Q9EP80)", "assay": "pull-down; 80 μg GST-PICK1 on glutathione-Sepharose 4B beads, 16 mg mouse brain lysate in HKT buffer, 3 h at 4 °C; only the target purified"}, "[6]": {"target": "T1, GST-RAB39B (mouse)", "assay": "pull-down; 40 μg GST-RAB39B on glutathione-Sepharose 4B beads in presence of GTPγS, 2 mg lysate (RIPA buffer) of COS7 cells expressing PICK1 constructs, 3 h at 4 °C; only the target purified"}},
  "note": "Positions count from the first letter of the chain named. These are yes or no findings as the source states them, for the method shown. Binding seen in cells or lysates may run through a third protein. Some results given as binding are weak or reduced against the parent protein; the word gives no strength. For part of these data: Sequences can lack the tags named with a protein.",
  "data": [
    {"substance": "PICK1 in vitro transcribed and translated (pGEM-PICK1) (from UniProt Q9EP80 1-416)", "values": [
      {"measurement": "binding", "setting": "[1]", "value": "binds"}
    ]},
    {"substance": "PICK1, endogenous in mouse brain lysate (from UniProt Q62083 1-416)", "values": [
      {"measurement": "binding", "setting": "[2]", "value": "binds"},
      {"measurement": "binding", "setting": "[3]", "value": "no binding"},
      {"measurement": "binding", "setting": "[4]", "value": "binds"}
    ]},
    {"substance": "PKCα, endogenous in mouse brain lysate (from UniProt P20444 1-672) (enzyme)", "values": [
      {"measurement": "binding", "setting": "[5]", "value": "binds"}
    ]},
    {"substance": "flag-tagged PICK1 lacking the PDZ domain (flag-Δ121) (from UniProt Q9EP80 122-416) (domain or fragment)", "values": [
      {"measurement": "binding", "setting": "[6]", "value": "no binding"}
    ]},
    {"substance": "full-length myc-PICK1 with the K27D28AA substitutions (myc-KDAA) (from UniProt Q9EP80 1-416)", "values": [
      {"measurement": "binding", "setting": "[6]", "value": "no binding"}
    ]},
    {"substance": "full-length myc-PICK1 with the K83A substitution (myc-K83A) (from UniProt Q9EP80 1-416)", "values": [
      {"measurement": "binding", "setting": "[6]", "value": "binds"}
    ]},
    {"substance": "myc-tagged PDZ domain of PICK1 (myc-PDZ; aa 23–99) (from UniProt Q9EP80 23-99) (domain or fragment)", "values": [
      {"measurement": "binding", "setting": "[6]", "value": "binds"}
    ]}
  ]
}
